# Data from the supplement of paper PMC3334620.
# Whole data set: some 33,000 sequences, median “E-score (-0.5 to 0.5)” near -0.054, cut for the highest 2% near 0.35. The list shows a part of the results.
# Molecular target: T1, Stb5 (UniProt P38699)
# T1 sequence: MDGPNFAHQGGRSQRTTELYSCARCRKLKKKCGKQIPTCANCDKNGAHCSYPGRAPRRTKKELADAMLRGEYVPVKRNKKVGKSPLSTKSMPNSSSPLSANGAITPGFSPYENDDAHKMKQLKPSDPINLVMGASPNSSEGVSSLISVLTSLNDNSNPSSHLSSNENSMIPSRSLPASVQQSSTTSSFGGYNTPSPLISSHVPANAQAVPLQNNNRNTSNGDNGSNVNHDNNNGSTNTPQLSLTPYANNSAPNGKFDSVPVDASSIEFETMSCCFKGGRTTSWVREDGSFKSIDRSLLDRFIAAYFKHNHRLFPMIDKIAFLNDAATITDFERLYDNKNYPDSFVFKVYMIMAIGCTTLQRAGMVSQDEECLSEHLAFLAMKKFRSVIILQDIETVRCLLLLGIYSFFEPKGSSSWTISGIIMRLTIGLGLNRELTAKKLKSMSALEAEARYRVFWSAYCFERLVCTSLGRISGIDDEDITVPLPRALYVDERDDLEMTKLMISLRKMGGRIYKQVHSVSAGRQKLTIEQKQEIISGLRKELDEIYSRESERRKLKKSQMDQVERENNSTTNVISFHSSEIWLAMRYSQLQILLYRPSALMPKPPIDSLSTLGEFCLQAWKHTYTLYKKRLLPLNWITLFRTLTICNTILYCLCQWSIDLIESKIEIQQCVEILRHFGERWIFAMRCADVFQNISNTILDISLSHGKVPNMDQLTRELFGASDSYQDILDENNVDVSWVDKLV
# Assay: PBM E-score (8-mer binding enrichment) (E-score (-0.5 to 0.5)); higher = stronger / more preferred TF binding; most listed sequences are background and not binding sites
# Conditions: protein concentration: 200 nM; construct: GST-full length
# Experimental: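 Universal 'all 10-mer' protein binding microarrays (Agilent AMADID 015681) probed with GST-tagged S. cerevisiae TFs (full-length or DBD) made by in vitro transcription/translation (PURExpress), about 100-200 nM. Bound TF was detected with fluorescent anti-GST. Each ungapped 8-mer (which stands for itself and its reverse complement) is scored by the PBM enrichment score (E-score), a modified Wilcoxon-Mann-Whitney statistic from -0.5 to +0.5, computed with the Universal PBM Analysis Suite. Scale: above 0.35 generally sequence-specific binding.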
row,Sequence,PBM E-score
1,ACGACTGG,-0.152
2,CGGGGCAA,0.293
3,TCTCTCAA,0.0742
4,AGACAACA,-0.0854
5,GGAGCGTA,0.0296
6,ACAAATAT,-0.0227
7,ATTAGTCC,0.248
8,AAGACACC,0.321
9,AAACTAAC,-0.0336
10,ACTCGTTA,-0.226
11,CTGGTAAG,-0.163
12,ACATATTA,0.0329
13,AGGTTTGA,-0.0736
14,AAGAGGAA,-0.24
15,ATGTGTGG,-0.288
16,GATGCGCA,0.0286
17,GGCGGTAC,0.361
18,TCAGCGCA,-0.0475
19,GAGCATAC,-0.182
20,ACAACCAA,-0.26
21,AAAGCTTA,-0.184
22,AGTCCCAC,-0.0178
23,CGAATTCC,-0.0326
24,ATGCAATA,-0.178
25,TCACTTCA,-0.0498

row,Sequence,PBM E-score
1,CGAAATAA,0.0814
2,GCAACAAC,-0.0708
3,AGCACCGG,0.421
4,GGTGTAGA,0.0547
5,GCCTGGCA,-0.204
6,AATAAAAT,-0.0879
7,ATCTCCAC,0.0569
8,AAGCGTTC,-0.145
9,GATTCCCA,-0.0952
10,AGACATCT,-0.249
11,AGCATCCT,0.0941
12,CACACTAA,-0.317
13,AGGCTGAA,-0.167
14,GTGAGCGA,-0.182
15,AAGGGTGA,-0.252
16,CAGGAGCG,0.038
17,CCGTCTCC,0.22
18,GACCGTGC,0.122
19,ACTCGTAT,-0.22
20,AGAGACCC,-0.0278
21,CAATGGAC,-0.088
22,CTCGGGCC,0.0979
23,ACTTAACT,-0.00566
24,CTGGGCTC,-0.335
25,GAGCGAAA,0.029

row,Sequence,PBM E-score
1,CGAGTCCA,-0.152
2,CCCAGACC,-0.0261
3,ATTTAGCG,0.179
4,ACCACAAC,-0.0638
5,GACTGCTA,-0.183
6,CCGCCCAG,0.311
7,ACTGCATA,-0.187
8,AGTGCTCC,-0.0929
9,AACCGATT,0.0851
10,CGAACCAC,0.147
11,GAGTAATC,-0.0998
12,GCTGGACC,-0.0827
13,AAAATGTT,-0.267
14,GTAAATCA,0.0689
15,ATGTATCA,-0.245
16,AGAATCAG,0.083
17,GATAGCAC,0.0288
18,CAGGCATA,-0.0979
19,GACTGCTC,-0.238
20,GAAGCCGC,0.202
21,CGGAACAG,0.035
22,TCCCACCA,-0.119
23,AAGTACGA,0.0896
24,GGGACGGA,0.255
25,ACTAGGTG,-0.129

row,Sequence,PBM E-score
1,AGCGCCCA,-0.145
2,GAAGTGAA,-0.157
3,GTCCGCTA,0.374
4,GCGCCGCA,0.268
5,ATTAGGTA,-0.186
6,GCATAGGA,-0.0752
7,ATCTTACC,0.0611
8,ATCTCCCA,-0.158
9,GCGCATAA,-0.103
10,CAGAGTAC,-0.0917
11,ACGTCTTA,-0.398
12,CACGCATA,-0.191
13,GCTAAAAA,-0.104
14,AGAATCTG,-0.0539
15,CCGCGGCC,0.317
16,GACGGGCC,0.31
17,TAACTAAA,0.029
18,CGCTGCCG,0.0613
19,AGCGTTTA,-0.0439
20,CAACGCTG,-0.0321
21,TGCCTAAA,-0.205
22,GGGGCAAA,0.231
23,GCCGAAGA,-0.016
24,GCCTAGCA,-0.233
25,ACTGCAAC,-0.284

row,Sequence,PBM E-score
1,GACATGTA,0.127
2,AAATGCCT,-0.111
3,CATCTAAA,0.00115
4,AATATCCT,-0.00071
5,GTCCATAA,-0.268
6,ATCCGGTC,0.147
7,CCGGTCAG,0.179
8,GCTAGACC,-0.0659
9,ATGCAGGA,-0.322
10,CATAGAAA,-0.0877
11,GTTACGTA,-0.106
12,CAGGCATG,-0.111
13,AACGATGT,-0.186
14,AGCGATCC,-0.0329
15,GCTCTGGA,-0.00109
16,AGCTCCCT,-0.295
17,CAGCGACG,0.0833
18,GCGGGATA,0.237
19,AGGAGACG,-0.0596
20,CGCAAGAC,-0.145
21,GCCATATA,0.0897
22,ATACATAA,-0.0939
23,CCACACAG,-0.154
24,GGTAAATA,0.219
25,CTTAAGTA,0.0202

row,Sequence,PBM E-score
1,CCAATTCA,-0.261
2,AGTTACCA,-0.0163
3,CATGTGCA,-0.0466
4,AGCATGGC,-0.178
5,ACGGAGGG,0.0922
6,CCTGTACA,-0.0473
7,TCCTCCGA,0.157
8,ATATCAGA,0.0971
9,GTAGATAA,-0.0465
10,TCGCCGAA,0.178
11,CGTGTTTC,-0.0337
12,TAAGTCCA,0.207
13,ACACAAGT,-0.0563
14,GACGCCCC,0.0392
15,CCAGATGC,-0.143
16,ATTCTCTA,-0.189
17,CCAAAGAC,-0.0393
18,ATCGCCAG,-0.0866
19,ATAACCAG,-0.171
20,AATGAGAT,-0.211
21,AAGCGTAG,-0.187
22,AGAGAACT,0.0463
23,ACAGCGTG,-0.0948
24,ACTTGGTG,-0.217
25,CCGGTGTC,0.408

row,Sequence,PBM E-score
1,GACTTCAA,-0.101
2,CAAGTCGA,-0.282
3,AGCCCGAA,0.247
4,CGCACGAA,-0.0424
5,AAGAGCAG,-0.119
6,GATCGTCA,-0.133
7,GGTTTATA,0.255
8,ACTCGGAT,0.0317
9,TCGCTCCA,-0.126
10,GCACAACA,0.00017
11,AAGCTATG,-0.15
12,GGTCGCTA,0.143
13,CCCCGCGG,0.349
14,AGGACGCA,-0.15
15,ACCACTGC,-0.242
16,ATCTACGA,-0.116
17,AAGTTATG,-0.145
18,ACGTGAGT,-0.224
19,GAAGTATC,-0.0587
20,ACTGGGAA,-0.168
21,CAACCAGG,-0.0851
22,CCGGTAGA,0.18
23,AATCGCTC,-0.148
24,AGAGCACA,-0.391
25,TACGACCA,-0.192

row,Sequence,PBM E-score
1,ACCTATAT,0.00991
2,AGCTCCAG,-0.0175
3,CATTTTAA,0.0061
4,CCGCGATA,0.248
5,GCCGGTTA,0.168
6,GCACGAGA,0.0318
7,CACGTGAC,-0.00531
8,CAATTAGA,-0.275
9,CATCATGG,-0.28
10,GCTTTTGA,0.0244
11,CTCTTCAC,-0.151
12,CCATCGGC,0.191
13,AATAATCA,-0.0238
14,AAGAGGGC,-0.216
15,ACTGTCCC,-0.0687
16,TAGTCGCA,-0.0366
17,CGAATGCG,0.0485
18,CTCAGCCA,-0.113
19,CACACCCG,0.0895
20,GCCAAAAC,-0.107
21,TAATAAAA,0.0664
22,CTGATTTC,-0.0794
23,CAGGGCCA,-0.205
24,AACGCTAT,0.0235
25,ACGATCCT,-0.231

row,Sequence,PBM E-score
1,CGTCCGCC,0.338
2,GATGCGGA,0.236
3,GTCTCTCA,-0.0305
4,ATAATACC,0.368
5,CCTGGAAC,-0.246
6,CCAGATCA,-0.134
7,GGGTGCAC,-0.073
8,AGGTCAAC,-0.0325
9,ATCGTCGA,-0.0831
10,GCTAGAAC,-0.00053
11,CCTGGCCA,-0.309
12,AAGGATGG,-0.0926
13,GGGCTGCA,-0.251
14,ATCGACCC,0.208
15,GGCTGTAC,0.114
16,GGTAATGA,0.00865
17,CAAATTAG,-0.123
18,AAATGTTA,-0.111
19,ACTGGGCG,0.0751
